# Hit rate of the full screen: of about 310,000 compounds, about 14,000 (4.5%) showed an effect of 50% or more. The effect is printed as a negative number. Some of the results follow.
# Biological target: human ether-à-go-go-related gene (hERG) potassium channel (human, UniProt Q12809)
# Assay: primary screen, population patch clamp on CHO cells stably expressing hERG
# 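Note: peak tail current of the secondary pulse compared with the same well before compound.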
# human ether-à-go-go-related gene (hERG) potassium channel, sequence (Q12809 whole entry, looked up): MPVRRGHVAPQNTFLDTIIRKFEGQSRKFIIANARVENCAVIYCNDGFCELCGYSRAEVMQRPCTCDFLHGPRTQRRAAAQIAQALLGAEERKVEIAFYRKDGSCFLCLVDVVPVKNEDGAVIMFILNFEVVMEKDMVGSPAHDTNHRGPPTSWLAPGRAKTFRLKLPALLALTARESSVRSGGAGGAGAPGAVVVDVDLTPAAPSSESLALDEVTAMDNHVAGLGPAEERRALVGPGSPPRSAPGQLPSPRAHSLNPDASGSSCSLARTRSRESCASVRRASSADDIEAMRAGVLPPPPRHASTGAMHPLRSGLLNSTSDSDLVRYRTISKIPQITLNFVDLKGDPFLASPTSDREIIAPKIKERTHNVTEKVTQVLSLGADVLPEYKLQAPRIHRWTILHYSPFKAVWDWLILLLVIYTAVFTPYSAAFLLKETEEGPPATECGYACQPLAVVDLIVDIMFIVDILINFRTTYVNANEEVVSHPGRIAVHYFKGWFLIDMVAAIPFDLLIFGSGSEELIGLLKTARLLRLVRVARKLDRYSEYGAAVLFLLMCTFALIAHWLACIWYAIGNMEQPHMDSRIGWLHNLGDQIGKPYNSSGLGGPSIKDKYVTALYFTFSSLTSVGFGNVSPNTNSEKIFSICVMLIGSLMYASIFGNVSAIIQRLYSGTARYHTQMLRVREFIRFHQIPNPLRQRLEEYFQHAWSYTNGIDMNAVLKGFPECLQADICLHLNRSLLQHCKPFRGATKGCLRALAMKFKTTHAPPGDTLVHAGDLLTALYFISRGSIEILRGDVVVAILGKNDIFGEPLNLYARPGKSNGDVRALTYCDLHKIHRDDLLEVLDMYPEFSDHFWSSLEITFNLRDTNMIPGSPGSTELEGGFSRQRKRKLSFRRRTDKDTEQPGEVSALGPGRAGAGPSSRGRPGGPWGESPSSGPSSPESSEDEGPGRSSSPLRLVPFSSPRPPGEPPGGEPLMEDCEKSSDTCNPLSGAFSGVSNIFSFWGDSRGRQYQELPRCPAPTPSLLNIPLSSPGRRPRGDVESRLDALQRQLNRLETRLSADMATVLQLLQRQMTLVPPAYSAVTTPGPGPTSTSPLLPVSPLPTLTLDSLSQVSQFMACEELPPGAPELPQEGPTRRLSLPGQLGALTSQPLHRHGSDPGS
row,SMILES,"hERG current change (%, negative = inhibition) at 10uM [%]"
1,Cc1ccc(C2=CC(c3ccc(N(C)C)cc3)n3nnnc3N2)cc1 (centres unmarked),10.4
2,O=C(NCc1ccco1)c1cnn2c(C(F)(F)F)cc(-c3ccccc3)nc12,-0.784
3,CCC(CC)c1nnc(NC(=O)CCNC(=O)c2ccccc2Cl)s1,-14.5
4,O=C(CN1CCN(Cc2ccc(Cl)cc2)C1=O)N1CCC2(CC1)OCCO2,-12.5
5,CC(=O)OCc1c(C)cc(C)c(/C=C(/C#N)C(N)=O)c1C,17.4
6,S=C(NCCc1ccccn1)Nc1ccc(Cl)c(Cl)c1,13.4
7,O=C(COc1ccc(Cl)cc1)N1CCN(C/C=C/c2ccccc2)CC1,-70.7
8,COc1ccc(CNc2ncnc3c2[nH]c2cc(OC)c(OC)cc23)cc1,8.4
9,CCCNC(=O)OC[C@H]1O[C@H](CCO/N=C/c2ccc(C(=O)N3[C@H](c4ccc(C)cc4)[C@@H](C)CC[C@H]3C(=O)OC)cc2)C=C[C@@H]1Oc1ccc(OC)cc1,5.48
10,CN1CCN(C(=O)CC23CC4CC(CC(C4)C2)C3)CC1,-2.65
11,CN(C)C(=O)COc1ccc(S(=O)(=O)c2ccc(OCC(=O)N(C)C)cc2)cc1,22.9
12,COc1cc(OC)cc(C(=O)O/N=C(\N)c2ccncc2)c1,-0.197
13,O=C(c1ccc(S(=O)(=O)c2ccc(F)cc2)c([N+](=O)[O-])c1)N1CCCCCC1,-11.6
14,Cc1ccc(C)c(S(=O)(=O)NCCOc2nc(NC(C)C)nc(NC(C)C)n2)c1,-32.7
15,Cc1cc(OC(=O)c2cccc(C(F)(F)F)c2)c([N+](=O)[O-])c(=O)[nH]1,8.41
16,COCCn1cc(C(=O)N2CCCC(C)C2)c2c3ccccc3n(C)c2c1=O (centres unmarked),13.5
17,COc1ccc(NC(=O)Cn2nnc(C(=O)NCc3ccccc3)c2N)c(OC)c1,-3.13
18,CCc1nc(SCc2cc(Cl)ccc2OC)n[nH]1,5.74
19,CC1=C(C(=O)Nc2ccccc2C(=O)NC2CCCCC2)SCCO1,2.8
20,CCOC(=O)c1cnc(SCC(=O)N2CCOCC2)nc1N,16.4
21,CCOc1ccc(C(C)=O)cc1CN1C(=O)NC2(CCCCCC2)C1=O,3.83
22,Cc1ccc2c(c1)cc(C(=O)N1CCN(c3ccccn3)CC1)n2C,5.77
23,Cn1c2c(c(=O)n(C)c1=O)C(c1ccccc1Cl)CC(=O)N2 (centres unmarked),13.1

# Source: PMC4336329 (PLoS ONE, 2015)
